This is one part of the list.
T1: UNK ZnF1-3 (human, UniProt Q9C0B0 31-174)
T1 sequence: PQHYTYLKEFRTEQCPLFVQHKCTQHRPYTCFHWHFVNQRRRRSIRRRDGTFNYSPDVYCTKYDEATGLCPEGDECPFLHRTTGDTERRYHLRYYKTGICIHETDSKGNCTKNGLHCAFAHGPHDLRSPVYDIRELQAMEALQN

B1: chr7:149068622:149068623:-_ENSMUSG00000025139_ENSMUST00000001950|mus_hu|mus_mus_mus_hu_False|8_18 (ssRNA)
RNA: GGGAGUUCUACAGUCCGACGAUCGUGAGGCCUCUGAGUGUGGCUUGUGGUCUGUCCUGGGUUAGAGUUGUUAAUAUCACGGAACAUACCAUCUAGAACGUUCCAGUCCCGCCUGACCAUCCACCCUGCAAGAGGGCAGAAAUCCAACAGAGGAUUGAGCAUCA
B2: chr2:48782664:48782665:-_ENSMUSG00000026761_ENSMUST00000141441|mus_hu|FALSE|FALSE (ssRNA)
RNA: GGGAGUUCUACAGUCCGACGAUCCACUCUUUUUUCUAAGAGUUCCAAAAUAUCCAAUCUACAUGUAAGACCAAUAACUGCUAUUGGGGUCUGUGCAGACUGAGAAAUGUCAAAAAGAUUAUAGAGAAGUGUUUGGUUUUUAUGCAACAGAGGAUUGAGCAUCA
B3: chr18:43664530:43664531:-_ENSG00000152234_ENST00000398752|hu_hu|FALSE|FALSE (ssRNA)
RNA: GGGAGUUCUACAGUCCGACGAUCAGUGCCCAACAAGGCUUGGUGCUGGCUGACGACAUGAGACAAGAAAGCAUUCUCAAACUUUGUAAUCUUGCUGGGCUCCAGUUUAUCAAGAUAUCCCCUUACACCCGCAUAGAUAACAGCCAACAGAGGAUUGAGCAUCA
B4: chr11:134117265:134117266:+_ENSG00000151502_ENST00000281187|hu_mus|FALSE|FALSE (ssRNA)
RNA: GGGAGUUCUACAGUCCGACGAUCGUUGGAAAAUAAUUUUGUGUUGUCGGCUGGGAGGCAGAGAAAUUGACAAAUGCUUUUUAAUGAGAUAUUAAAAGGAGGCACGGCAGAGUCUAGUCUCAUAUCCUGAAAAGGGCAAGAGCCCAACAGAGGAUUGAGCAUCA
B5: chr7:135612270:135612271:-_ENSG00000105887_ENST00000393085|hu_mus|hu_hu_hu_mus_False|1_28 (ssRNA)
RNA: GGGAGUUCUACAGUCCGACGAUCGUUUUUUUCUGAGAUGUUAAAUAGUACUUCAGUGGAAAACAAAACUUAACCUUUUAUUAAUGCGUGUUGUACCAAAAGCAGACCAUGGUUUUACAUUUAUUCAAAAAUAUUAAGAACAUUCAACAGAGGAUUGAGCAUCA
B6: chr7:133502204:133502205:+_ENSG00000131558_ENST00000253861|hu_hu|FALSE|FALSE (ssRNA)
RNA: GGGAGUUCUACAGUCCGACGAUCGGUGUCUGCGUUGGCCAGAAUCUUCAAAGGGUCAGAUGUUUUAGUGACUCCUUCAAUCUCCUUGUUGAUCUCAGCCAAGACUUGAUUGAGAAAGAUGUUUUUGAUGUACACGGUGAGAAACAACAGAGGAUUGAGCAUCA
B7: chr7:151048522:151048523:+_ENSG00000013374_ENST00000566856|hu_mus|hu_hu_hu_mus_True|48_58 (ssRNA)
RNA: GGGAGUUCUACAGUCCGACGAUCCUGUUUCUUAUUUAUUACGAUCUUGAUGUAAUUUUCUUGAAAUCCGAAAGUUUCAGCUAUUUUGGACCUCAGUUCUCUACCAGUGACAUGCAAGCGGGUCUCCAACAAGCUUUUCUUAUCCAACAGAGGAUUGAGCAUCA
B8: 232325539_232326332_832_CDS_ENSG00000115053_ENST00000322723|human|control|control (ssRNA)
RNA: GGGAGUUCUACAGUCCGACGAUCUUUGGCUGGUGUAGUCUCCAUAGCUUCUUCUUCAGAGUCAUCUUCCUCAUCGUCAUCGUCAUCCUCAUCAUCUUCGUCAUCCUCAUCGUCCUCAUCCUCUGAGGCAGGGGCAGCAGCUGCCAACAGAGGAUUGAGCAUCA
B9: chr4:115894766:115894767:+_ENSMUSG00000028698_ENSMUST00000030464|mus_hu|mus_mus_mus_hu_True|68_78 (ssRNA)
RNA: GGGAGUUCUACAGUCCGACGAUCUUCCACACGGAAAUGUACUUCGGGUUUUCCAACGCCAGUACAAGUCCAGCCAAAACUACCCGAACAGGGUCCUCCCCCUCUCUCCUACAGAACACAACAAAAUGCCCCCGAACUUUCAAGCAACAGAGGAUUGAGCAUCA
B10: 62105683_62122626_701_CDS_ENSMUSG00000042298_ENSMUST00000050646|mouse|control|control (ssRNA)
RNA: GGGAGUUCUACAGUCCGACGAUCUGAUAGCUGCUUGGAGAAUAGCAGAUAGCGUGCACAAGAGUCUAAGCACAUACCAAGGAGGAGGUAAGUAUUGGCUGUUUCUUCUGACAUAAUAUCUUCUGCUAAUUCCUUUUCUCUUUCCAACAGAGGAUUGAGCAUCA
B11: chrX:98862621:98862622:+_ENSMUSG00000034160_ENSMUST00000044475|mus_hu|mus_mus_mus_hu_False|38_48 (ssRNA)
RNA: GGGAGUUCUACAGUCCGACGAUCCUGCAUCUCCUUUAGAGUGUUUCCCAUAUUAGAGUAGGCAUCAGCAAAGGUAGGACUGAUUCGUAUGGCUUCUUUAUAGUGCAUCAGAGCUUCCUGCAGUUUUCCCUGCUGCUGCAGUACCAACAGAGGAUUGAGCAUCA
B12: chr18:59894552:59894553:+_ENSG00000134444_ENST00000256858|hu_hu|FALSE|FALSE (ssRNA)
RNA: GGGAGUUCUACAGUCCGACGAUCUUGAUGAUUUCCAAAAUCCCGGUAGAGUUGCAAUAAGUCUGGAGGUUUUGGAAUGUUUAAUCCUACAUCAUCCCAUAAUUCAAAAUCCUGAUCAUCGUUUUCAUCUGAAAAGGUUAUUGACAACAGAGGAUUGAGCAUCA
B13: chr1:215793774:215793775:+_ENSG00000136636_ENST00000259154|hu_hu|FALSE|FALSE (ssRNA)
RNA: GGGAGUUCUACAGUCCGACGAUCAUAGGGAACUUUCUUUCUUCCAAGGAAUCCUCCCCCUUCAAAUCCUCCUUUCUUCCUAAACUCUAUUUUAUUUUCAUUUUCAUCUUCUGAUGACCUUUUCUUGGAUUCUGAAAAACCUUCCAACAGAGGAUUGAGCAUCA
B14: chr19:8913615:8913616:-_ENSMUSG00000071658_ENSMUST00000096259|mus_hu|mus_mus_mus_hu_False|8_98 (ssRNA)
RNA: GGGAGUUCUACAGUCCGACGAUCAGGGUACCAAAACACCCUGCCUCAAAUGGGUGCCCCACCCAGUAGGGAGUUGCAGCUGAAAGUAUCUGAUGCAGAAGCAGUGACUAUACGAAAGGAGGCCCCUGAUGCUCAGAAGGCCAGCAACAGAGGAUUGAGCAUCA

target: T1, UNK ZnF1-3; test: nsRBNS (natural sequence RNA bind-n-seq); RBNS binding buffer (assumed for nsRBNS): 25 mM Tris pH 7.5, 150 mM KCl, 3 mM MgCl2, 0.01% Triton X-100, 500 ug/ml BSA, 20 U/ml SUPERase-In, 4 C; UNK is unkempt and MSI1 is Musashi-1; names of the RNAs are library labels; protein concentration not given here; high values mean tight binding

Binder	binding signal
B1	0.672 enrichment R
B2	0.825 enrichment R
B3	1.28 enrichment R
B4	2.19 enrichment R
B5	1.02 enrichment R
B6	0.885 enrichment R
B7	0.674 enrichment R
B8	0.663 enrichment R
B9	1.03 enrichment R
B10	1.07 enrichment R
B11	0.967 enrichment R
B12	0.399 enrichment R
B13	0.475 enrichment R
B14	1.13 enrichment R

Reference: publication PMC12136788
